According to PubChem BioAssay AID588453 (National Center for Advancing Translational Sciences (NCATS), 2011):
Among all 390,000 compounds or so, about 4,000 (1%) were called active. The inconclusive results got no clear call from the source; some entries with a clear call stand among them for comparison. Calls come from the whole dose curve; as a rule, active = well fitted inhibition curve with a large enough effect; inconclusive = small, poorly fitted or top-dose-only effect; inactive = no such curve, though single readings can be large or run the other way. Where the call is inconclusive, the potency comes from a doubtful curve fit.

target: Thioredoxin reductase 1, cytoplasmic (Rattus norvegicus) (UniProt O89049); experiment: qHTS Assay for Inhibitors of Mammalian Selenoprotein Thioredoxin Reductase 1 (TrxR1): qHTS; details: recombinant rTrxR1, NADPH fluorescence consumption, selenite substrate; series mostly up to 114 µM; activity change, negative = inhibition: at the top concentration; note: nearly all actives have a fitted effect of over 65% in size
In short: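 Rat TrxR1 (90 nM in the dispensed reagent) was pre-reduced with 400 uM NADPH for 5 min at room temperature, then incubated with compound for 15 min. After 400 uM selenite was added, NADPH fluorescence (Ex 340/Em 450 nm) was followed for 8 min.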
% is set by controls: 0 for no effect and ±100 for the full control effect; potency is the fitted concentration of half-maximal effect; tags give direction and shape of the fitted curve.

UniProt O89049, sequence (O89049 whole entry, looked up): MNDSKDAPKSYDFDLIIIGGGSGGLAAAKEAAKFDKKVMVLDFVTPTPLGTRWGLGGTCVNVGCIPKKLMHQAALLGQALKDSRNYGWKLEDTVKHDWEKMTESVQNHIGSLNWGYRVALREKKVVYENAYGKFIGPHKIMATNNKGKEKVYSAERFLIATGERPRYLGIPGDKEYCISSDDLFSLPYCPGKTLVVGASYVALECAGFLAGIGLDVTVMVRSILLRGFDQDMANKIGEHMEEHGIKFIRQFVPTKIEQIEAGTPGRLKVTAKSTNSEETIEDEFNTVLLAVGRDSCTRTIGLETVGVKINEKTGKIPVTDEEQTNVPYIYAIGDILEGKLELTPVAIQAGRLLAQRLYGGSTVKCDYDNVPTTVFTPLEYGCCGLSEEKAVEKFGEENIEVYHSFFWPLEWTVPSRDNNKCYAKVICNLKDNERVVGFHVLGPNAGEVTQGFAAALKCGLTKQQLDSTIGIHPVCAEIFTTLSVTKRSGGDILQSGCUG

Row | Structure (SMILES) | Potency | activity change, negative = inhibition
1 | COC(=O)c1cccc(Cn2c(Cl)c(/C=N/Nc3ccccc3C)sc2=O)c1 | active: 22.4 µM | –
2 | O=C(c1ccccc1)N1CCN(CCc2ccncc2)CC1 | inconclusive: 17.8 µM [inhibitor, full curve] | –
3 | CCCCC/C=C\CC(O)/C=C/c1cccc(CC(O)CCCCO)n1 (configuration not stated) | inconclusive: 6.7 µM [inhibitor, partial curve] | –
4 | C=CCOc1ccc(C2c3c(oc4ccccc4c3=O)C(=O)N2CCCN2CCOCC2)cc1 (configuration not stated) | inconclusive: 70.8 µM [inhibitor, partial curve] | –
5 | COc1ccc(C2=NN(C(C#N)c3ccc(OC)c(OC)c3)C(c3ccccc3)C2)cc1 (configuration not stated) | inconclusive: 79.4 µM [inhibitor, partial curve] | –
6 | O=C(O)c1ccc(-c2nc(-c3ccc(Cl)cc3Cl)cs2)cc1 | – | inactive: 4.98%
7 | O=C(COC(=O)Cc1ccccc1[N+](=O)[O-])NCc1ccc(Cl)cc1 | inconclusive: 17.8 µM [inhibitor, partial curve, poor fit] | –
8 | COc1ccc(NC(=O)COc2cccc3c2CCN(C)C3=O)c(OC)c1 | inconclusive: 89.1 µM [inhibitor, single point] | –
9 | CCN(CC)CCOc1ccc2c(c1)C(=NO)c1cc(OCCN(CC)CC)ccc1-2 | – | inactive: 25.8%
10 | Cc1cc(N2CCOCC2)ccc1/C=C\[N+](=O)[O-] | inconclusive: 28.2 µM [inhibitor, single point] | –
11 | CCOc1ccccc1-c1nc(CN2CCCN(C(=O)c3ccco3)CC2)c(C)o1 | inconclusive: 50.1 µM [inhibitor, partial curve] | –
12 | CC(C)c1nc(N2CCN(C(=O)c3ccco3)CC2)c2c3c(sc2n1)CCCC3 | inconclusive: 39.8 µM [inhibitor, partial curve] | –
13 | O=C(NCc1ccccc1)c1ccc(CNS(=O)(=O)c2ccc(Br)cc2)cc1 | – | inactive: 29%
14 | Cc1ccc(Oc2nc(CN3CCOCC3)nc3sc4c(c23)CCC(C)C4)cc1 (configuration not stated) | inconclusive: 89.1 µM [inhibitor, single point] | –
15 | COc1cc(C2C(C#N)=C(N)Oc3c2ccc2ccccc32)ccc1OCC(=O)Nc1ccccc1C (configuration not stated) | inconclusive: 63.1 µM [inhibitor, partial curve, poor fit] | –
16 | CN(C)c1ccc(N=Nc2ccnc3ccccc23)cc1 | – | inactive: 7.41%
17 | CCN(CC)S(=O)(=O)c1ccc(NC=C(C#N)C#N)cc1 | inconclusive: 89.1 µM [inhibitor, single point] | –
18 | O=C1CCN(C(=O)Nc2ccccc2)N1 | inconclusive: 17.8 µM [inhibitor, single point] | –
19 | CCOC(=O)C1CCN(C(=O)CCc2nnc3ccc(NCc4ccco4)nn23)CC1 | inconclusive: 56.2 µM [inhibitor, partial curve, poor fit] | –
20 | C=CCOc1ccc(/C=C/C(C)=N\O)cc1 | inconclusive: 79.4 µM [inhibitor, partial curve, poor fit] | –
21 | COc1ccc(/C=C/c2cc(-c3ccc(C)cc3)o[n+]2C)cc1 | inconclusive: 79.4 µM [inhibitor, single point] | –
22 | CC12C=CC3(CN(Cc4ccccc4)C(=O)C3C1C(=O)NCc1ccco1)O2 (configuration not stated) | active: 56.2 µM | –
23 | O=c1c2c3c(sc2n(CCN2CCCCC2)c(=O)n1Cc1ccco1)CCCCC3 | inconclusive: 35.5 µM [inhibitor, partial curve, poor fit] | –

Row | Structure (SMILES) | Potency | activity change, negative = inhibition
24 | Cc1cccc(NC(=O)c2ccc(-n3cccn3)c([N+](=O)[O-])c2)c1 | inconclusive: 20 µM [inhibitor, single point] | –
25 | COc1cccc(NC(=O)NCc2ccccc2F)c1 | – | inactive: 2.23%
26 | Oc1ccc(Cl)cc1C1=NNC(c2ccc(Cl)cc2)C1 (configuration not stated) | inconclusive: 50.1 µM [inhibitor, partial curve] | –
27 | Cc1ccc2[nH]c(=O)c(CN(Cc3cccnc3)Cc3nnnn3CC3CCCO3)cc2c1 (configuration not stated) | – | inactive: 14.2% [at 57.1 µM]
28 | O=C(NC(=S)Nc1ccc2[nH]ncc2c1)c1ccccc1 | inconclusive: 15.8 µM [inhibitor, single point] | –
29 | Cc1ccc(CS(=O)(=O)c2ncc(Cl)c(C(=O)Nc3nc4ccc(C)cc4s3)n2)cc1 | inconclusive: 2.82 µM [inhibitor, full curve] | –
30 | COC(=O)C1=C[C@@H](C(=O)OC)[C@@H]2C3=C(C(=O)[C@@]2(C)NC(=O)c2ccccc2)[C@H](c2ccccc2)n2c(=O)n(-c4ccccc4)c(=O)n2[C@@H]3C1 | – | inactive: 15.7%
31 | Cc1ccccc1Nc1c(-c2ccco2)nc2c(C)cccn12 | inconclusive: 20 µM [inhibitor, partial curve, poor fit] | –
32 | N#CC(C#N)=C1C=CC=CN1/C(=C\c1ccccc1Cl)C(=O)c1ccccc1 | inconclusive: 1.26 µM [inhibitor, partial curve, poor fit] | –
33 | C/C(=N\NC(=O)c1ccc2c(c1)OCO2)c1ccco1 | – | inactive: 15.8% [at 57.1 µM]
34 | O=C1N=C(N2CCCC2C(=O)O)S/C1=C\c1ccco1 (configuration not stated) | inconclusive: 28.2 µM [inhibitor, single point] | –
35 | Cc1ccc(N2N=C(c3ccc(F)cc3)CC2c2ccco2)cc1 (configuration not stated) | inconclusive: 89.1 µM [inhibitor, single point] | –
36 | Cc1nn(C(=O)c2ccc(Br)cc2)c(C)c1S(=O)(=O)N1CCOCC1 | inconclusive: 31.6 µM [inhibitor, single point] | –
37 | CCOC(=O)CC(=O)CSc1nnc2sc3ccccc3n12 | inconclusive: 14.1 µM [inhibitor, full curve] | –
38 | O=C(CSc1nc2nc(-c3cccs3)cc(C(F)(F)F)c2c(=O)[nH]1)NCc1ccco1 | inconclusive: 79.4 µM [inhibitor, single point] | –
39 | Cc1ccc(NC(=O)Cn2c(=O)n(Cc3ccco3)c(=O)c3sc4ccccc4c32)cc1C | inconclusive: 89.1 µM [inhibitor, single point] | –
40 | Cc1c(C)c2c(OCC(=O)N3CCC(C(N)=O)CC3)cc3c(c2oc1=O)CCC(C)(C)O3 | inconclusive: 31.6 µM [inhibitor, single point] | –
41 | O=C1CCOc2cc(OCc3ccccc3)ccc21 | – | inactive: 19.2%
42 | Cc1ccc2nc(-c3cc(NC(=O)/C=C/c4ccccc4)ccc3Cl)oc2c1 | – | inactive: 26%
43 | O=C(c1cccc(Cl)c1)N1CCN(CCc2ccncc2)CC1 | inconclusive: 17.8 µM [inhibitor, full curve] | –
44 | O=C(CSc1nnc(-c2cccnc2)n1Cc1ccco1)c1ccc2ccccc2c1 | inconclusive: 44.7 µM [inhibitor, partial curve, poor fit] | –
45 | CC(CC(=O)Nc1ccc(Cl)c([N+](=O)[O-])c1)c1ccccc1 (configuration not stated) | inconclusive: 3.16 µM [inhibitor, partial curve, poor fit] | –
46 | COc1ccc(-c2nc(CSc3nncn4c3cc3occc34)c(C)o2)cc1 | inconclusive: 11.2 µM [inhibitor, partial curve, poor fit] | –

Row | Structure (SMILES) | Potency | activity change, negative = inhibition
47 | COc1ccc(N2C(=O)CC(NCc3ccncc3)C2=O)cc1 (configuration not stated) | inconclusive: 70.8 µM [inhibitor, single point] | –
48 | CC(=O)Nc1ccc2c(c1)C(=O)c1ccccc1C2=O | – | inactive: 11.6% [at 57.1 µM]
49 | Cc1ccc(S(=O)(=O)CC(=O)c2ccccc2[N+](=O)[O-])cc1 | inconclusive: 17.8 µM [inhibitor, full curve, poor fit] | –
50 | Cc1ccccc1CN1CCNC(=O)C1CC(=O)NCCC1=CCCCC1 (configuration not stated) | inconclusive: 70.8 µM [inhibitor, partial curve] | –
51 | O=c1[nH]n(-c2ccccc2)c(=O)c(Cl)c1Cl | inconclusive: 22.4 µM [inhibitor, partial curve] | –
52 | COc1ccccc1CN(C)CC(=O)Nc1ccccc1-c1ccccc1 | – | inactive: -7.19% [at 57.1 µM]
53 | C=CCSc1nnc(-c2nnc(SCC=C)n2-c2ccccc2)n1-c1ccccc1 | – | inactive: -0.399%
54 | COc1ccc(-c2cc(C(=O)NNC(=S)NC(=O)c3c(-c4ccccc4)noc3C)[nH]n2)cc1 | inconclusive: 35.5 µM [inhibitor, partial curve] | –
55 | CC(=O)C[C@H](O)CC(=O)[C@H]1OC(=O)CCCCCCc2ccccc21 | – | inactive: 16.7%
56 | CCOC(=O)c1ccc(N2C(=O)c3n[nH]c(-c4ccco4)c3C2c2ccc(O)cc2)cc1 (configuration not stated) | inconclusive: 12.6 µM [inhibitor, partial curve, poor fit] | –
57 | Oc1ccccc1N=Cc1sc2ccccc2c1Cl | – | inactive: -15%
58 | COc1ccc(CN2CCCN(S(=O)(=O)c3ccc(Br)cc3)CC2)cc1 | inconclusive: 56.2 µM [inhibitor, partial curve, poor fit] | –
59 | O=C(CCNS(=O)(=O)c1cccc2nonc12)NC1CCCc2ccccc21 (configuration not stated) | inconclusive: 15.8 µM [inhibitor, full curve, poor fit] | –
60 | Oc1ccc(/C=C/c2ccc(/C=C/c3ccc(O)cc3)c(Br)c2)cc1 | active: 22.4 µM | –
61 | COc1ccccc1C(=O)Oc1ccc2ccc(=O)oc2c1 | inconclusive: 89.1 µM [inhibitor, single point] | –
62 | CC(NC(=S)Nc1ccc(S(N)(=O)=O)cc1)c1ccc2c(c1)OCO2 (configuration not stated) | inconclusive: 22.4 µM [inhibitor, partial curve, poor fit] | –
63 | CCc1c(C)sc(NC(=O)c2cc(-c3cccc(Cl)c3)on2)c1C#N | inconclusive: 56.2 µM [inhibitor, partial curve, poor fit] | –
64 | CC(=O)Nc1ccc2nc(-c3cccn3C)[nH]c2c1 | – | inactive: -1.64%
65 | COCCCNC(=O)c1ccc(Cn2c(=O)c3ccccc3n(CC(=O)Nc3c(C)cccc3C)c2=O)cc1 | – | inactive: 4.02%
66 | Cc1ccc(NC(=O)c2noc3c2CCC3)cc1C | active: 50.1 µM | –
67 | COc1cccc(-c2nc(CS(=O)(=O)CC(=O)NCCc3ccc(OC)cc3OC)c(C)o2)c1 | inconclusive: 44.7 µM [inhibitor, partial curve] | –
